Data reported in patent publication US20250000991A1, “NECTIN-4 ANTIBODIES AND ANTIBODY-DRUG CONJUGATES” (Eli Lilly and Company, priority 2023, published 2025).

What was measured:
NCI-H1781 cells = test: Cytotoxicity of ADCs with other payloads and linker chemistry, low expression line; type: cell-based; details: NCI H1781, 5 days, DAR 8
Experimental: (§1) NCI-[…] cells were seeded in white clear-bottom 96-well tissue culture plates in culture medium (RPMI 1640+1× GlutaMax+10% Heat Inactivated Fetal Bovine Serum+1 mM sodium pyruvate). Cells were incubated at 37° C. with 5% CO2 overnight. Next day, ADCs were added at final working concentration from 100 nM, 1:4 serially diluted in culture medium. Plates were covered with Breathe-Easy® sealing membrane and incubated at 37° C. with 5% CO2. Plates were read after 5 days treatment using CellTiter-Glo Luminescent Cell Viability Assay. 100 ul/well CellTiter-Glo reagent were incubated in plates at room temperature for 10 min. Luminescence was read in the SpectraMax M5e. RLUs (Relative Light Units) were obtained with SoftMax […].4. Percentage of cell killing was calculated against no treatment as 0%. Data was graphed and analyzed using GraphPad Prism version 9.5.1. IC50 was determined via log(inhibitor) vs. response-variable slope (four parameters) curve fitting.

[1] = test system: UMUC3-human nectin4 cloneF7; test: Cytotoxicity of ADCs with other payloads and linker chemistry, high expression line; type: cell-based; details: UMUC3 Nectin-4 clone F7, 6 days, DAR 8
Experimental: as §1, with “fitting. UMUC3 cell line was engineered to express human Nectin4 and clonally selected for high expression. UMUC3-human nectin4 cloneF7 engineered cell line was seeded in culture medium (MEM+1× GlutaMax+10% Heat Inactivated Fetal Bovine Serum+1 mM sodium pyruvate+500 μg/ml G418). ADCs were added at final working concentration from 100 nM, 1:4 serially diluted in culture medium for 6 days.” for “fitting.”

MDA-MB-468 xenograft = test: Tumor xenograft, moderate nectin-4 expression; type: in vivo, NSG mice; details: MDAMB468 xenograft, single dose 2 mg/kg, day 71
Experimental: In a separate study, female NSG mice between 5-6 weeks of age were injected subcutaneously with MDA-MB-468 cells with moderate Nectin-4 expression. When tumors reached approximately 150-250 mm^3; animals were matched by tumor volume into treatment or control groups and dosing initiated (Day 0, n=8 per group). The test articles were given at a single dose (2 mg/kg) formulated with 5% Dextrose. Tumors were measured biweekly until Day 71.
In both models, a 2 mg/kg single dose treatment of either the nectin-4 ADCs (exemplified herein with each of Abs1-8 conjugated as in Formula XI, and with a DAR of 8) or benchmark enfortumab ADC (enfortumab conjugated with Formula XI, and with a DAR of 8) was used. Tumor growth was measured at day 40 for UMUC3 Nectin-4 clone F7 and day 71 for MDAMB468 xenografts.

[2] = test system: UM-UC-3 Nectin4 clone F7 xenograft; test: Tumor xenograft, high nectin-4 expression; type: in vivo, mice (nu/nu); details: UMUC3 Nectin-4 clone F7 xenograft, single dose 2 mg/kg, day 40
Experimental: In order to test the efficacy of the nectin-4 ADCs of the present disclosure, which have effector null mutations in the Fc region, and to compare to the enfortumab antibody, which has wildtype Fc and in an ADC with the same payload background as the ones of this disclosure, two tumor xenograft models with either high or moderate nectin-4 expression were tested as described. Immune compromised female mice (nu/nu) between 5-8 weeks of age with weight 18-20 grams were implanted unilaterally on the right flank with UM-UC-3 Nectin4 clone F7 cells with high nectin-4 expression. […] The test articles were given at a single dose (2 mg/kg) formulated with 5% dextrose. Tumors were measured biweekly until Day 40.

B1: Ab2 ADC: Ab2 conjugated as in Formula XI, and with a DAR of 8 (conjugate)
heavy: EVQLVESGGGLVQPGGSLRLSCAASGFTFSSYDMHWVRQATGKGLEWVSAIGTVGDTYYPGSVKGRFTISRENAKNSLYLQMNSLRAGDTAVYYCAREWNGMDVWGQGTTVTVSSASTKGPSVFPLAPSSKSTSGGTAALGCLVKDYFPEPVTVSWNSGALTSGVHTFPAVLQSSGLYSLSSVVTVPSSSLGTQTYICNVNHKPSNTKVDKRVEPKSCDKTHTCPPCPAPEAAGGPSVFLFPPKPKDTLMISRTPEVTCVVVSVSHEDPEVKFNWYVDGVEVHNAKTKPREEQYNSTYRVVSVLTVLHQDWLNGKEYKCKVSNKALPAPIEKTISKAKGQPREPQVYTLPPSREEMTKNQVSLTCLVKGFYPSDIAVEWESNGQPENNYKTTPPVLDSDGSFFLYSKLTVDKSRWQQGNVFSCSVMHEALHNHYTQKSLSLSPGK
light: DIVMTQSPDSLAVSLGERATINCKSSQSVLYNSNNKNYLAWYQQKPGQPPKLLIYWASTRESGVPDRFSGSGSGTDFTLTISSLQAEDVAVYYCQQFYTTPYSFGQGTKVEIKRTVAAPSVFIFPPSDEQLKSGTASVVCLLNNFYPREAKVQWKVDNALQSGNSQESVTEQDSKDSTYSLSSTLTLSKADYEKHKVYACEVTHQGLSSPVTKSFNRGEC
IC50 (NCI-H1781 cells): 0.0245 nM | IC50 [1]: 0.0569 nM | Mean tumor volume (MDA-MB-468 xenograft): 124.95 mm^3 | Mean tumor volume [2]: 72.57 mm^3
